Test results from publication PMC4336329 (PLoS ONE, 2015).
Among all 310,000 compounds or so, about 14,000 (4.5%) showed an effect of 50% or more. Effects have a minus sign here. This is one part of the list.

Molecular target: human ether-à-go-go-related gene (hERG) potassium channel (human, UniProt Q12809)
Experiment: primary screen, population patch clamp on CHO cells stably expressing hERG
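Further: peak tail current of the secondary pulse compared with the same well before compound.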

human ether-à-go-go-related gene (hERG) potassium channel, sequence (Q12809 whole entry, looked up): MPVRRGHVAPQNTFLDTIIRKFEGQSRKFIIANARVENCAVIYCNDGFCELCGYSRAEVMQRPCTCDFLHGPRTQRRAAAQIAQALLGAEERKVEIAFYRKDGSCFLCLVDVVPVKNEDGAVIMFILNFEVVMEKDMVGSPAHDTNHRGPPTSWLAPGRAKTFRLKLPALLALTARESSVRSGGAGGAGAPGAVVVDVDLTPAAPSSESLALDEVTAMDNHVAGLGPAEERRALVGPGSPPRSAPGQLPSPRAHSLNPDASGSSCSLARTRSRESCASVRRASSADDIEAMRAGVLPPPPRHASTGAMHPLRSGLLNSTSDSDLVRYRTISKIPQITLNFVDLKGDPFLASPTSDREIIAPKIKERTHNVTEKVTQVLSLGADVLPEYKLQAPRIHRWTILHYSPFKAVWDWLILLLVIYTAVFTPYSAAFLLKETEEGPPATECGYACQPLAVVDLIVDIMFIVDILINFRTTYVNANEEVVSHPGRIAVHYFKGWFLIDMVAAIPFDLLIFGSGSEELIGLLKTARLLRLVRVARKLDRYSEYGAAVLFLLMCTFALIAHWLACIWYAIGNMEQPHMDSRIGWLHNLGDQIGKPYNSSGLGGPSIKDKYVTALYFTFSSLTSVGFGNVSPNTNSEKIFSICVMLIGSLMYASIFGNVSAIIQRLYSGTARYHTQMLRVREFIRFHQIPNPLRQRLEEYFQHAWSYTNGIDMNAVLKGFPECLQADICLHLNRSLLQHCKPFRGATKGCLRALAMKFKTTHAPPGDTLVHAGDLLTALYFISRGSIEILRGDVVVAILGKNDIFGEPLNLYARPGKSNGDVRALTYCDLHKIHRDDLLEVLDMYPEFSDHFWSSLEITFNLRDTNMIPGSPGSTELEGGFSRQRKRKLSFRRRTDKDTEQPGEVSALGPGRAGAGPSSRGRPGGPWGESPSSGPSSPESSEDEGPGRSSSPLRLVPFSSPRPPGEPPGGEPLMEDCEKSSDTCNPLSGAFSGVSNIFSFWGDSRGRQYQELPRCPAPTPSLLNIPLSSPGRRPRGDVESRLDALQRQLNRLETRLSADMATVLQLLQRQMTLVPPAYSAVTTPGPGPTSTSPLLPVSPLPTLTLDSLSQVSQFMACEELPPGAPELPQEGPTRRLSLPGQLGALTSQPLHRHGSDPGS

For `O=C(CN1CCN(c2ccccc2F)CC1)c1ccc(O)c(O)c1`, which “hERG current change (%, negative = inhibition) at 10uM” value is on record?
The value was -70.7%.

How did the “hERG current change (%, negative = inhibition) at 10uM” value turn out when `Cc1cccnc1NC(=O)c1ccc2c(c1)OCCO2` was run?
Its value is -3.42%.

Which “hERG current change (%, negative = inhibition) at 10uM” value does the source give for `O=C(COC(=O)/C=C/c1ccco1)Nc1cccc([N+](=O)[O-])c1` here?
The value was 23.4%.

Which “hERG current change (%, negative = inhibition) at 10uM” value does the source give for `O=C(COC(=O)c1c2c(nc3ccccc13)CCN(Cc1ccccc1)C2)Nc1c(F)cccc1F` here?
The value was -27.4%.

`CCCN1C(=O)N(c2cccc(C)c2)C(C)(O)CC1(C)C` (stereo not shown) was tested. Which “hERG current change (%, negative = inhibition) at 10uM” value did it give?
Its value is -5.27%.

How did the “hERG current change (%, negative = inhibition) at 10uM” value turn out when `Cc1nnc(SCC(=O)NC2CC2)n1CC1CCCO1` (stereo not shown) was run?
The value was 40.2%.

Which “hERG current change (%, negative = inhibition) at 10uM” value does the source give for `CC(=O)N(Cc1cc(=O)[nH]c2ccccc12)c1ccc(C)cc1C` here?
The value was 8.06%.

For `CCN(CC)CC(=O)Nc1ccc(Oc2ccc(NC(=O)CN(CC)CC)cc2)cc1`, which “hERG current change (%, negative = inhibition) at 10uM” value is on record?
The value was 17.1%.

`Cn1cnnc1SCc1ccc(C(=O)O)cc1` was tested. Which “hERG current change (%, negative = inhibition) at 10uM” value did it give?
The value was 6.73%.

How did the “hERG current change (%, negative = inhibition) at 10uM” value turn out when `O=C(COC(=O)CN1C(=O)C2CCCCC2C1=O)Nc1c(Cl)cccc1Cl` (stereo not shown) was run?
Its value is -22.6%.

With `CCOC(=O)Cc1nnc(NC(=O)C2CCCCC2)s1` as the compound, how does the “hERG current change (%, negative = inhibition) at 10uM” value read?
Its value is 12.3%.

Which “hERG current change (%, negative = inhibition) at 10uM” value does the source give for `CCN(C(=O)c1cccnc1SC)C12CC3CC(CC(C3)C1)C2` here?
Its value is 12.2%.

`CCOCCCn1c(=S)[nH]c2cc(C(=O)NCCCN(CC)CC)ccc2c1=O` was tested. Which “hERG current change (%, negative = inhibition) at 10uM” value did it give?
The value was 2.06%.

Which “hERG current change (%, negative = inhibition) at 10uM” value does the source give for `O=S(=O)(c1cccc(Cl)c1)N1CCSc2ccccc21` here?
Its value is -14.9%.

How did the “hERG current change (%, negative = inhibition) at 10uM” value turn out when `CCn1cc(C(=O)N2CCn3c(nc4ccccc43)C2)c(=O)c2ccc(C)nc21` was run?
Its value is -12.4%.

Which “hERG current change (%, negative = inhibition) at 10uM” value does the source give for `CCOC(=O)c1cnc2c(CC)cccc2c1NCCCN1CCOCC1` here?
The value was -35.6%.

For `CCNC(=O)[C@H]1O[C@@H](n2cnc3c(N)nc(NCCc4ccc(CCC(=O)O)cc4)nc32)[C@H](O)[C@@H]1O.Cl`, which “hERG current change (%, negative = inhibition) at 10uM” value is on record?
Its value is 12.2%.

`O=C(CCNC(=O)c1ccccc1Cl)Nc1cc(C(F)(F)F)ccc1N1CCCC1` was tested. Which “hERG current change (%, negative = inhibition) at 10uM” value did it give?
The value was 7.45%.

With `Cc1c(C(=O)NCCc2ccccc2)oc2ccc(S(=O)(=O)N3CCC4(CC3)OCCO4)cc12` as the compound, how does the “hERG current change (%, negative = inhibition) at 10uM” value read?
The value was -26%.

Which “hERG current change (%, negative = inhibition) at 10uM” value does the source give for `O=S(=O)(Nc1ccc2ccccc2n1)c1ccccc1` here?
Its value is 22.6%.

`CCC(=O)n1nc(NCc2ccccc2OC)nc1NCc1ccccc1OC` was tested. Which “hERG current change (%, negative = inhibition) at 10uM” value did it give?
Its value is 6.99%.

`CCN(CC)c1ccc(C=Nc2ccc(C#N)cc2)c(O)c1` was tested. Which “hERG current change (%, negative = inhibition) at 10uM” value did it give?
Its value is -2.03%.

`O=C(CCc1nc2ccccc2c(=O)[nH]1)NCc1cccc(Cl)c1` was tested. Which “hERG current change (%, negative = inhibition) at 10uM” value did it give?
Its value is -2.59%.

`COc1cc(CCCN2C(=S)NC[C@H]2Cc2ccc(O)cc2)cc(OC)c1OC` was tested. Which “hERG current change (%, negative = inhibition) at 10uM” value did it give?
The value was -16.4%.

With `O=C(CCn1cnc2ccccc2c1=O)Nc1ccc(Cl)c(Cl)c1` as the compound, how does the “hERG current change (%, negative = inhibition) at 10uM” value read?
Its value is -4.04%.

With `CCc1nnc(NC(=O)C2CCN(C(=O)c3ccco3)CC2)s1` as the compound, how does the “hERG current change (%, negative = inhibition) at 10uM” value read?
The value was -0.31%.

`COc1ccc(N(C)S(=O)(=O)c2cccc(C(=O)N(C)Cc3ccc(C)o3)c2)cc1` was tested. Which “hERG current change (%, negative = inhibition) at 10uM” value did it give?
The value was -30.3%.

With `CCC(CC)c1nnc(NC(=O)COc2ccc3c(C)cc(=O)oc3c2)s1` as the compound, how does the “hERG current change (%, negative = inhibition) at 10uM” value read?
The value was -1.11%.

How did the “hERG current change (%, negative = inhibition) at 10uM” value turn out when `CC(=O)c1cc2c(cc1NC(=O)Nc1cccc(Cl)c1)OCCO2` was run?
The value was -11.7%.

Which “hERG current change (%, negative = inhibition) at 10uM” value does the source give for `O=C(Nc1ccncc1)c1ccc2c(c1)C(=O)N(C1CCCCC1)C2=O` here?
Its value is 7.44%.

How did the “hERG current change (%, negative = inhibition) at 10uM” value turn out when `CN(Cc1ccccn1)C(=O)C1CCC(=O)N(Cc2cccc(C(F)(F)F)c2)C1` (stereo not shown) was run?
Its value is -15.7%.

How did the “hERG current change (%, negative = inhibition) at 10uM” value turn out when `CCOc1ccccc1C(=O)Nc1cc(C(=O)NCC(C)C)ccc1Cl` was run?
Its value is 12%.

For `CCOC(=O)Nc1ccc2c(c1)N(C(=O)N1CCN(C)CC1)c1ccccc1CC2.Cl`, which “hERG current change (%, negative = inhibition) at 10uM” value is on record?
Its value is -16.7%.

Which “hERG current change (%, negative = inhibition) at 10uM” value does the source give for `CCCCOc1ccc(-c2nnc(-c3cc[n+](C)cc3)o2)cc1.O=S(=O)([O-])c1ccccc1` here?
The value was -18.3%.

With `COc1ccc(S(=O)(=O)N(C)Cc2ccc3c(c2)OCCO3)cc1` as the compound, how does the “hERG current change (%, negative = inhibition) at 10uM” value read?
The value was -13.6%.

How did the “hERG current change (%, negative = inhibition) at 10uM” value turn out when `CCOc1ccc(CCNC(=O)COC(=O)c2ccc(OC)c(OC)c2OC)cc1OCC` was run?
The value was 12.2%.

For `CCOc1ccc(CCNC(=O)c2ccc(F)c(S(=O)(=O)N3CCOCC3)c2)cc1OCC`, which “hERG current change (%, negative = inhibition) at 10uM” value is on record?
The value was 2.34%.

For `CCOc1ccc(-c2c(C(=O)N/N=C(\C)c3ccccc3OC)nnn2-c2nonc2N)cc1`, which “hERG current change (%, negative = inhibition) at 10uM” value is on record?
The value was 23.5%.

Which “hERG current change (%, negative = inhibition) at 10uM” value does the source give for `Cc1ccc(NC(=O)C(CC(=O)O)C2CCCO2)c(C)c1` (stereo not shown) here?
The value was -13.7%.

Which “hERG current change (%, negative = inhibition) at 10uM” value does the source give for `CC1(C)C(=O)Nc2ccccc2N1C(=O)COC(=O)COc1cccc(C(F)(F)F)c1` here?
Its value is -10%.

With `Cc1ccc(S(=O)(=O)N2CC(=NN=C(N)N)C2)cc1` as the compound, how does the “hERG current change (%, negative = inhibition) at 10uM” value read?
Its value is 28.4%.

For `Cc1ccc(NC(=O)C2CCCN(S(=O)(=O)c3cnc[nH]3)C2)c(Br)c1` (stereo not shown), which “hERG current change (%, negative = inhibition) at 10uM” value is on record?
The value was -6.61%.

Which “hERG current change (%, negative = inhibition) at 10uM” value does the source give for `Cn1cc(CC(=O)Nc2cccc(C#N)c2)c2ccccc21` here?
The value was -14%.

How did the “hERG current change (%, negative = inhibition) at 10uM” value turn out when `C=CCn1c(C(CCCC)CC(O)COCCC)n[nH]c1=S` (stereo not shown) was run?
Its value is 8.6%.

With `Cc1nnc(SCC(=O)N(C(C)C)C(C)C)nc1C` as the compound, how does the “hERG current change (%, negative = inhibition) at 10uM” value read?
The value was 12.3%.

`Fc1ccc(CSc2nc3ncc(Br)cc3[nH]2)cc1` was tested. Which “hERG current change (%, negative = inhibition) at 10uM” value did it give?
The value was -0.963%.

Which “hERG current change (%, negative = inhibition) at 10uM” value does the source give for `Cc1cccnc1CCNCc1c(C(=O)N2C[C@@H](C)O[C@@H](C)C2)nc2ccc(Cl)cn12` here?
Its value is -13.2%.

How did the “hERG current change (%, negative = inhibition) at 10uM” value turn out when `Clc1ccc(N2CCN(c3ccnc(Cl)n3)CC2)cc1` was run?
Its value is -28%.

With `Cc1ccc(S(=O)(=O)N(CC(=O)Nc2cccnc2)c2ccccc2C)cc1` as the compound, how does the “hERG current change (%, negative = inhibition) at 10uM” value read?
The value was -16.4%.

With `O=C(/C=C/c1ccc(N2CCCCC2)c([N+](=O)[O-])c1)c1ccc(O)cc1` as the compound, how does the “hERG current change (%, negative = inhibition) at 10uM” value read?
Its value is 4.95%.

`COc1cc2[nH]c3c(N4CCC(C(N)=O)CC4)ncnc3c2cc1OC` was tested. Which “hERG current change (%, negative = inhibition) at 10uM” value did it give?
Its value is 15.7%.

For `Cn1cc(S(=O)(=O)Nc2ccc(Br)cc2F)c(=O)n(C)c1=O`, which “hERG current change (%, negative = inhibition) at 10uM” value is on record?
Its value is 11.1%.

Which “hERG current change (%, negative = inhibition) at 10uM” value does the source give for `CC1Sc2ccc(S(=O)(=O)N3CCC(C(=O)NCc4ccc(Cl)cc4)CC3)cc2NC1=O` (stereo not shown) here?
The value was -5.58%.

`O=C1NC(=O)C2(CCC(C(=O)O)C2)N1` (stereo not shown) was tested. Which “hERG current change (%, negative = inhibition) at 10uM” value did it give?
The value was 19.3%.

`CC1CC(=O)c2cnc(NCc3ccco3)nc2C1` (stereo not shown) was tested. Which “hERG current change (%, negative = inhibition) at 10uM” value did it give?
The value was 9.12%.
